# Screen size: about 360,000 compounds; about 11,000 (3.1%) were called active. Inconclusive results, whose numbers are uncertain, are shown with a selection of clear calls. The call rests on the fitted dose curve; in most records, active means well fitted inhibition curve with a large enough effect; inconclusive means small, poorly fitted or top-dose-only effect; inactive means no such curve, though single readings can be large or run the other way. Potencies of inconclusive entries are left out as doubtful fits.
# Target: Schistosoma mansoni thioredoxin glutathione reductase (TGR) (UniProt Q962Y6)
# Test: qHTS Assay for the Inhibitors of Schistosoma Mansoni Peroxiredoxins; further: nearly all actives have a fitted effect of over 60% in size
# Conditions: purified TGR, DTNB reduction, TNB absorbance 405 nm; series mostly up to 114 µM
# In short: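 Kinetic colorimetric format: TGR-catalysed, NADPH-driven DTNB reduction monitored via TNB absorbance. Enzyme dispensed at 20 nM; compound exposure 15 min at room temperature before reaction start.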
# Potency means the concentration at half of the fitted maximal effect; tags describe the fitted curve by direction and shape.
row,SMILES,Potency
1,COC(=O)c1cccc(NC(=O)CC2C(=O)NCCN2C(=O)Nc2cc(C)cc(C)c2)c1 (stereo not given),"inconclusive [inhibitor, full curve, poor fit]"
2,O=S(=O)(NCc1ccco1)c1cccc2cccnc12,"inconclusive [inhibitor, partial curve]"
3,CCOC(=O)N1CCC(NC(=O)c2ccc(CS(=O)(=O)c3ccccc3C)o2)CC1,"inconclusive [inhibitor, partial curve]"
4,CC(=O)c1ccc(NC(=O)/C(=C\c2ccccc2)NC(=O)c2ccco2)cc1,"inconclusive [inhibitor, single point]"
5,CCOc1ccc(NC(=O)Cc2c(O)c3ccccc3[nH]c2=O)cc1,"inconclusive [inhibitor, full curve]"
6,CP(=O)(Nc1cc(Cl)ccc1Cl)c1nc2c(s1)CCCC2 (stereo not given),active: 8.91 µM
7,O=C(COc1cccc2c1CCN(Cc1ccc(Br)cc1)C2=O)N1CCOCC1,"inconclusive [inhibitor, single point]"
8,Cc1ccc(/C=C/C(=O)OCc2nc(N)nc(Nc3ccccc3C)n2)o1,"inconclusive [inhibitor, partial curve]"
9,CCOc1cc(/C=C2\C(=N)N3N=C(S(C)(=O)=O)SC3=NC2=O)ccc1OCCOc1cccc(OC)c1,"inconclusive [inhibitor, full curve, poor fit]"
10,O=C1CSC(=S)N1/N=C/c1cccnc1,active: 6.31 µM
11,COC(=O)C1=C(N)Oc2cc(C)oc(=O)c2C1c1cccnc1 (stereo not given),"inconclusive [inhibitor, full curve, poor fit]"
12,CC(C)C(=O)Nc1ccc2c(c1)nc(CCN1CCN(C)CC1)n2C,"inconclusive [inhibitor, partial curve, poor fit]"
13,Cn1c(=O)n(CC(=O)O)c(=O)c2c1nc1n2CCCN1Cc1ccccc1,"inconclusive [inhibitor, single point]"
14,N=c1n(CC(=O)c2cccc([N+](=O)[O-])c2)c2ccccc2n1Cc1ccccc1,inactive
15,O=C(O)c1cccnc1SC1CC(=O)N(c2ccc(OC(F)F)cc2)C1=O (stereo not given),active: 44.7 µM
16,O=[N+]([O-])C1=CC=C2C(=NC3(CCCCC3)N2O)C1=NCCO,"inconclusive [inhibitor, partial curve]"
17,O=C(Nc1ccc(S(=O)(=O)N2CCOCC2)cc1)c1ccc(Cl)cc1,inactive
18,COc1ccccc1NC(=O)CSc1n[nH]c(-c2ccccn2)n1,inactive
19,CCOc1ccc(NC(=O)CC2C(=O)N(c3ccccc3)C(=O)N2C2CCCC2)cc1 (stereo not given),active: 50.1 µM
20,Nc1ccc(-c2c3ccccc3nc3ccccc23)cc1,inactive
21,CCOC(=O)/C(C#N)=C/c1ccc(OC(=O)c2ccccn2)cc1,"inconclusive [inhibitor, partial curve]"
22,CC(=O)c1ccc(OCc2cc(C(=O)N(C)CCN3CCOCC3)no2)cc1,"inconclusive [inhibitor, partial curve, poor fit]"
23,Cc1ccc(NC(=O)Nc2c(C)n(C)n(-c3ccccc3)c2=O)c(Cl)c1,inactive

row,SMILES,Potency
1,Cc1ccccc1N1C(S)=C(C#N)C(=O)NC1c1ccco1 (stereo not given),"inconclusive [inhibitor, partial curve]"
2,COC(=O)c1ccc(C)c(NC(=O)Cn2cnc3ccccc3c2=O)c1,"inconclusive [inhibitor, single point]"
3,CCOC(=O)COc1cc(C)c(Cl)cc1C(=O)c1ccn2nc(-c3ccc(OC)cc3)cc2n1,inactive
4,COc1ccc(C(=O)Nc2ccnn2C2CCN(CCC(C)c3ccc(C)o3)CC2)cc1 (stereo not given),"inconclusive [inhibitor, full curve, poor fit]"
5,CCOC(=O)C[n+]1ccc2c([nH]c3ccccc32)c1C,inactive
6,CC(C)(C)OC(=O)NCC1CCN(S(=O)(=O)Cc2ccccc2)CC1,inactive
7,COc1ccc(NS(=O)(=O)c2cccc(NC(=O)C34CCC(CC3)C4)c2)cc1,inactive
8,CCOC(=O)CSc1nc2c(sc(=S)n2-c2ccccc2OC)c(=O)n1Cc1ccco1,inactive
9,COc1ccc(-n2c(CN3CCN(c4ccccc4)CC3)nc3ccc([N+](=O)[O-])cc3c2=O)c(OC)c1,"inconclusive [inhibitor, partial curve]"
10,CNC(=S)N/N=C/c1cn(Cc2ccc(F)cc2)c2ccccc12,inactive
11,COc1ccc(-c2noc(CCCC(=O)NCc3ccco3)n2)cc1OC,active: 39.8 µM
12,O=[n+]1c2c(n([O-])c3cc(F)c(N4CCCC4)cc31)CCCC2,"inconclusive [inhibitor, partial curve]"
13,COc1ccc2c(c1)O[C@@H](c1ccc3c(c1)OCO3)[C@H](OC(=O)Nc1cc(OC)c(OC)c(OC)c1)C2=O,inactive
14,COc1ccccc1OCC(=O)N/N=C1\CCCCc2ccccc21,inactive
15,Cc1cc(C)nc(NS(=O)(=O)c2ccc(N/C=C3\CCCC3=O)cc2)n1,"inconclusive [inhibitor, partial curve]"
16,O=C1NC2=C(CCc3ccccc32)C(c2ccccc2)N1 (stereo not given),"inconclusive [inhibitor, partial curve]"
17,COc1ccc(NC(=O)CCC(=O)OC(C(=O)c2ccccc2)c2ccccc2)cc1 (stereo not given),"inconclusive [inhibitor, full curve, poor fit]"
18,COc1ccc(CNC(NC(=O)c2ccccc2)(C(F)(F)F)C(F)(F)F)cc1,inactive
19,COc1ccc(-c2cc(C(F)(F)F)n3ncc(-c4ccccc4)c3n2)cc1,inactive
20,COc1cc(C2C3=C(CC(C)(C)CC3=O)N(C)C3=C2C(=O)CC(C)(C)C3)cc(Br)c1O,"inconclusive [inhibitor, partial curve]"
21,CCc1[nH]c(C)c(C(C)=O)c1C,"inconclusive [inhibitor, partial curve]"
22,O=C(COc1ccccc1/C=C\c1[nH]c(=O)[nH]c(=O)c1[N+](=O)[O-])Nc1ccccc1,"inconclusive [inhibitor, partial curve]"
